According to PubChem BioAssay AID588855 (National Center for Advancing Translational Sciences (NCATS), 2011):
About 5,000 (1.2%) of roughly 410,000 compounds were called active. Inconclusive results, whose numbers are uncertain, are shown with a selection of clear calls. Calls come from the whole dose curve; as a rule, active = well fitted inhibition curve with a large enough effect; inconclusive = small, poorly fitted or top-dose-only effect; inactive = no such curve, though single readings can be large or run the other way. A potency beside an inconclusive call is a rough fit, not a confirmed value.

Assay: qHTS for Inhibitors of TGF-b; note: nearly all actives have a fitted effect of over 65% in size
Settings: HepG2 CAGA-GFP TGF-b/SMAD3 reporter, GFP fluorescence, 18 h, TGF-beta stimulated, 500 pg/mL final; series mostly up to 46.1 µM; activity, negative = inhibition: at the top concentration
How it was run: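 Using HEPG2 CAGA-GFP reporter cells at 1000 cells/well, we pinned test compounds, stimulated with recombinant TGF-beta (500 pg/mL final) and measured total well GFP after 18 h.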
% is set by controls: 0 for no effect and ±100 for the full control effect; potency is the fitted concentration of half-maximal effect; tags give direction and shape of the fitted curve.

Compound	Potency	activity, negative = inhibition
c1cc(-c2cn(C[C@H]3CC[C@@H]([C@@H]4CC[C@H](Cn5cc(-c6ccsc6)nn5)O4)O3)nn2)cs1	inconclusive: 35.5 µM [inhibitor, single point]	
CC(=O)c1cccc(NC(=O)CCc2nnc3ccc(N4CCOCC4)nn23)c1		inactive: 0.853%
Cn1nnnc1SCCCNCc1ccc(-c2cccc(Cl)c2)o1	inconclusive: 25.1 µM [inhibitor, single point]	
N/C(Cc1ccccc1Sc1ccccc1)=N\O	inconclusive: 11.2 µM [inhibitor, partial curve, poor fit]	
COc1ccc2[nH]c(S(=O)Cc3ncc(C)c(OC)c3C)nc2c1 (stereo unspecified)	inactive	
COC(=O)C1=C(C(=O)OC)[C@@H]2N(Cc3ccccc3)c3ccccc3[C@@]23C[C@@H](C(=O)OC)N(C(=O)c2ccc(Br)cc2)C3=N1	active: 10 µM	
CC1(C(=O)NS(=O)(=O)Cc2ccccc2)CCN1C(=O)C1(c2ccc(Cl)cc2)CC1 (stereo unspecified)		inactive: 0.575%
CCOc1ccc2nc(N3CCN(C(=O)C(C)C)CC3)sc2c1		inactive: -1.77%
O=c1[nH]c2ccc(NS(=O)(=O)c3ccc(F)cc3)cc2s1	inconclusive: 25.1 µM [inhibitor, single point]	
COc1ccc2oc(=O)cc(CN3CCN(C(=O)c4ccccc4Br)CC3)c2c1		inactive: -28.2%
Cc1nc(-n2nc(C)c(CCC(C)C)c2C)sc1C(=O)Nc1cccc(Cl)c1C		inactive: 1.29%
O=C(CN1C(=O)COc2ccc(S(=O)(=O)N3CCCC3)cc21)NCCc1ccc(Cl)cc1	inconclusive: 35.5 µM [inhibitor, single point]	
CC(NC(=O)/C=C/c1cnc2ccccc2n1)C12CC3CC(CC(C3)C1)C2 (stereo unspecified)	inconclusive: 12.6 µM [inhibitor, single point]	
O=C(O)CC1(CC(=O)NCc2ccc(C(F)(F)F)cc2)CCCCC1		inactive: 3.58%
Cn1c(CC2C(=O)Nc3ccc(Br)cc32)nc2ccccc2c1=O (stereo unspecified)	inconclusive: 35.5 µM [inhibitor, single point]	
CCC(=O)Nc1cccc(NC(=S)NC(=O)c2ccc(C)cc2)c1	inconclusive: 4.47 µM [inhibitor, partial curve]	
COc1ccc(-c2cc(C(F)(F)F)nc(NCc3cccs3)n2)cc1	inconclusive: 28.2 µM [inhibitor, single point]	
S=Cc1nc2ccccc2[nH]1		inactive: -1.05%
CCN(CC)S(=O)(=O)c1ccc(N2CCCC2)c(NC(=O)CN2C(=O)NC3(CCCC3)C2=O)c1		inactive: -6.66%
CC1(C(=O)Nc2cccc3c2CCCC3)CCN1C(=O)C1(c2ccc(Cl)cc2)CC1 (stereo unspecified)	inconclusive: 22.4 µM [inhibitor, single point]	
CCc1noc(C)c1C(=O)N1CCC(CCC(=O)Nc2cccc(OC)c2)CC1		inactive: 13.7%
Cc1ccc(C(C)C)c(OCc2ccc(C(=O)Nc3ccc(S(N)(=O)=O)cc3C)o2)c1	inconclusive: 14.1 µM [inhibitor, single point]	

Compound	Potency	activity, negative = inhibition
COc1cccc(CNC(=O)c2ccc3c(Cl)c4c(nc3c2)CCCC4)c1	inconclusive: 35.5 µM [inhibitor, single point]	
Cc1ccc(NC(=O)NCCN2CCCCC2)cc1Cl		inactive: 6.56%
O=C(NCC1CCN(Cc2cccc(Cl)c2)CC1)C1CCCN(c2ncnc3c2nc2n3CCCCC2)C1 (stereo unspecified)	inconclusive: 14.1 µM [inhibitor, single point]	
CCOc1ccccc1OCC(=O)NC1CCSc2ccccc21 (stereo unspecified)	inconclusive: 17.8 µM [inhibitor, single point]	
O=C1[C@H](Cc2ccccc2)NC/C=C\C[C@H](c2ccco2)N1Cc1ccccc1		inactive: -7.59%
CC(C)N(C(=O)[C@H]1C[C@H](CC(=O)NCCC2=CCCCC2)C(=O)N2CCc3c([nH]c4cc(CCC(=O)N(C)C)ccc34)[C@]12C)C(C)C	inconclusive: 35.5 µM [inhibitor, single point]	
Cn1cnc(S(=O)(=O)N2CCCCC2c2cc(C(=O)NCc3ccc(Cl)c(Cl)c3)no2)c1 (stereo unspecified)	inconclusive: 11.2 µM [inhibitor, single point]	
Cc1ccc(C(=O)O/N=C/c2c(N3CCOCC3)n(C)c3ccccc23)cc1		inactive: -15.8%
O=C(NN=Cc1ccc(F)c(F)c1)c1ccc(NS(=O)(=O)c2cccs2)cc1		inactive: 3.59%
CCOc1ccc(CCNC(=O)c2ccc(C)c(-n3cnc4cccnc43)c2)cc1	inconclusive: 22.4 µM [inhibitor, single point]	
Cc1c(O)ccc2c(CN(C)Cc3ccccc3)cc(=O)oc12		inactive: -5.42%
Cc1cccc(NCc2ccc(O)c3ncccc23)c1C	active: 11.2 µM	
COc1ccc(CCNCCC(c2ccccc2)c2ccccc2)cc1OC	inconclusive: 15.8 µM [inhibitor, single point]	
CCC(C(=O)NCc1cccc(C)c1)n1nc(C)c2c(C)n(-c3ccccc3)nc2c1=O (stereo unspecified)	inconclusive: 35.5 µM [inhibitor, single point]	
Cc1ccc(S(=O)(=O)N2CCC(c3nnc(-c4cccc(C)c4)o3)CC2)cc1	inconclusive: 7.08 µM [inhibitor, partial curve]	
O=C(CSc1nc2ccccc2o1)N/N=C/c1ccc(O)c(O)c1	inconclusive: 11.2 µM [inhibitor, single point]	
O=CNc1cc(-c2ccoc2)cn2c(-c3ccc(F)cc3)cnc12	active: 10 µM	
O=C(NC1CCN(C(=S)NCc2ccco2)CC1)C12CC3CC(CC(C3)C1)C2	inconclusive: 11.2 µM [inhibitor, single point]	
CCn1cc(C(=O)NCc2ccco2)c(=O)c2cc(S(=O)(=O)N3CCC(C)CC3)ccc21	inconclusive: 15.8 µM [inhibitor, single point]	
CCN1C(=O)CC(c2ccccc2)N(C2CCCC2)c2nc(Nc3ccc(C(=O)NC4CCN(C)CC4)cc3OC)ncc21 (stereo unspecified)	inconclusive: 35.5 µM [inhibitor, single point]	
CCN(CC)c1ccc(/C=N/NC(=O)OC)c(O)c1		inactive: -11.7%
CCOC(=O)c1ccc2nc(NC(=O)c3ccco3)sc2c1		inactive: 0%

Compound	Potency	activity, negative = inhibition
CN(C)CCNc1nc2sc3c(c2c(=O)n1CCc1ccccc1)CCCCC3	inconclusive: 15.8 µM [inhibitor, single point]	
O=C(COc1ccccc1Cl)N1CCN(c2ccc([N+](=O)[O-])c(N3CCOCC3)c2)CC1	inconclusive: 35.5 µM [inhibitor, single point]	
CCCC1(C(=O)OC)NC(c2ccc(OC)c(OC)c2)C2C(=O)N(c3cccc(C(C)=O)c3)C(=O)C21 (stereo unspecified)		inactive: -1.67%
COc1cc(NC(=S)Nc2ccccn2)c(OC)cc1Cl	inconclusive: 12.6 µM [inhibitor, single point]	
NC(c1csc(NC(=O)Nc2cccc(C(F)(F)F)c2)n1)C1CCCCC1 (stereo unspecified)	active: 6.31 µM	
CCOC(=O)C(C)/C(C)=N/NC(=O)CCC(=O)Nc1cc(C)ccc1C (stereo unspecified)	inconclusive: 35.5 µM [inhibitor, single point]	
COc1ccc(NC(=O)C(=O)c2cc(C)n(-c3ccc(C)cc3)c2C)cc1Cl	inconclusive: 15.8 µM [inhibitor, single point]	
O=c1c2c(C(F)(F)F)cc(C(F)(F)F)nc2[nH]n1-c1ccccc1	inconclusive: 11.2 µM [inhibitor, partial curve, poor fit]	
COc1ccccc1-c1oc2ccccc2c1-c1ccc2cc[nH]c2c1	inconclusive: 12.6 µM [inhibitor, partial curve, poor fit]	
O=C(Cc1cccs1)Nc1ccc(S(=O)(=O)N2CCCC2)cc1	inconclusive: 2.82 µM [inhibitor, partial curve]	
O=C(COC(=O)c1cc([N+](=O)[O-])ccc1N1CCOCC1)NCCc1ccccc1	inconclusive: 3.55 µM [inhibitor, partial curve, poor fit]	
CC1(C)C[C@@H](O)CC2(C1)C[C@]1(C)CC(O)[C@H]2C(C)(C)C1 (stereo partly specified)	inconclusive: 17.8 µM [inhibitor, single point]	
Cc1cccc(N2CCN(C(=O)C3CCCN(C(=O)c4cc5sccc5n4C)C3)CC2)c1C (stereo unspecified)	inconclusive: 25.1 µM [inhibitor, single point]	
CCOc1ccccc1N1CCN(C(=O)C(Sc2ccccc2)c2ccccc2)CC1 (stereo unspecified)	inconclusive: 12.6 µM [inhibitor, partial curve, poor fit]	
CC1(OC(=O)C2CCCC2)C(=O)C=C2C=C(c3ccsc3)N(CCc3ccccn3)C=C2C1=O (stereo unspecified)	inconclusive: 8.91 µM [inhibitor, partial curve, poor fit]	
O=C1C=CC(=O)C(C2=C3C(=O)N(CCc4ccccc4)CC(=O)N3CCC2)=C1	inconclusive: 35.5 µM [inhibitor, single point]	
COc1ccc(-c2nn(-c3ccccc3)cc2/C=C\C(=O)Nc2ccc(C(=O)O)cc2)cc1	inconclusive: 35.5 µM [inhibitor, single point]	
C/C(=C(\C#N)C(=O)NC1CCCCC1)N(C)C	inconclusive: 0.794 µM [inhibitor, full curve, poor fit]	
CC(C)(C)c1ccc(OCCC(=O)Nc2cccc(S(=O)(=O)N3CCCC3)c2)cc1	inconclusive: 10 µM [inhibitor, partial curve, poor fit]	
CN(C)CCCN(Cc1ccccc1)C(=S)Nc1ccc(SC(F)F)cc1	inconclusive: 35.5 µM [inhibitor, single point]	
O=S(=O)(NCc1ccccc1Br)c1ccccc1Br	inconclusive: 20 µM [inhibitor, single point]	
Cc1ccc(NC(=O)NC(=O)CN2C(=O)NC3(CCCCCCC3)C2=O)c(C)c1	inconclusive: 35.5 µM [inhibitor, single point]	
